Reference: PubChem BioAssay AID540267 (National Center for Advancing Translational Sciences (NCATS), 2011)
Among all 340,000 compounds or so, about 530 (0.16%) were called active. The inconclusive results got no clear call from the source; some entries with a clear call stand among them for comparison. No stated cut-off is given here; in the data, active means activity change below about -80%; inconclusive means between about -30% and that limit; inactive means weaker than that.

Experiment: Small Molecules that selectively kill Giardia lamblia: qHTS;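 further: parasites exposed to compound for two days anaerobically before the ATP read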
Details: Giardia lamblia trophozoite viability; at 7.66 µM; active compounds read low
How it was run: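 Giardia trophozoites, 100 cells per well, were exposed to compounds for 48 hrs at 37 deg C under anaerobic conditions; viability was then read as ATP content by bioluminescence after 15-30 min at room temperature.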
On the % scale 0 is the no-effect control and ±100 the full control effect.

Row | SMILES | activity change
1 | CN(C1CCCCC1)C(CNS(=O)(=O)c1ccccc1)c1ccccc1 (stereo unspecified) | inconclusive: -30.2% [inhibitor]
2 | O=S1(=O)Nc2c(cc(Cl)c3ccc(Cl)nc23)-c2ccccc21 | inactive: -15.9%
3 | COc1ccc(-c2ncn(CCC#N)c2[N+](=O)[O-])cc1 | inconclusive: -74.9% [inhibitor]
4 | CC[C@]12c3[nH]c4ccc(Cl)cc4c3CCN1C(=O)[C@@H](CC(=O)NCCN1CCOCC1)C[C@@H]2C(=O)N1CCN(C(=O)c2ccco2)CC1 | inconclusive: -35.8% [inhibitor]
5 | Cc1cccc2nc(CSCc3ccco3)cn12 | inactive: -0.46%
6 | Nc1cc2c3ccccc3ccc2c2ccccc12 | inactive: -3.18%
7 | Cn1c(=O)c2c(nc(C3CC4C5CCC(C5)C4C3)n2C)n(C)c1=O (stereo unspecified) | inconclusive: -37.4% [inhibitor]
8 | COc1ccc(C2=NN(C(C)=O)C(c3cccs3)C2)cc1OC (stereo unspecified) | inconclusive: -35.4% [inhibitor]
9 | O=[N+]([O-])c1cc2c(cc1C=Nc1ccccc1)OCO2 | inconclusive: -34.8% [inhibitor]
10 | CCOc1cccc(C(=O)Nc2ccc3c(c2)OCCO3)c1 | inconclusive: -33% [inhibitor]
11 | CCOc1cc(N2CCOCC2)c(OCC)cc1NC(=O)CN1CCc2ccccc2C1 | inactive: 7.71%
12 | CC(C)(C)NC(=O)C(c1ccncc1)N(C(=O)c1csnn1)c1cccc2ccccc12 (stereo unspecified) | inconclusive: -37.2% [inhibitor]
13 | COC(=O)CCCC1=CC2=C(c3ccccc3)C(=O)C(C)(OC(=O)C3CCCC3)C(=O)C2=CN1CCc1ccccn1 (stereo unspecified) | inconclusive: -30.2% [inhibitor]
14 | O=C(Nc1ccccc1)[C@@H]1CC=C[C@@H]2CCN(Cc3ccccc3)C(=O)[C@@H]21 | inconclusive: -36% [inhibitor]
15 | C[C@]12c3[nH]c4ccc(Cl)cc4c3CCN1C(=O)[C@@H](CC(=O)NCCN1CCOCC1)C[C@@H]2C(=O)N1CCOCC1 | inconclusive: -49.7% [inhibitor]
16 | Cc1cccc(C)c1OCc1cc(C(=O)NC2CCC2)no1 | inactive: -0.224%
17 | COc1ccc2[nH]c(C)c(CCNC(=S)Nc3cc(C)cc(C)c3)c2c1 | inconclusive: -31.1% [inhibitor]
18 | CCCNC(=O)c1ccc(-c2nc3ccccc3s2)s1 | inconclusive: -61.3% [inhibitor]
19 | NC(=O)c1ccccc1NC(=O)CN1CCN(Cc2ccccc2)CC1 | inconclusive: -32.6% [inhibitor]
20 | O=S(=O)(/C=C/c1ccccc1)N1CCN(c2nc(-c3ccccc3)nc3ccccc23)CC1 | inconclusive: -40.9% [inhibitor]
21 | CN(C)CCCOC(=O)COc1ccc(C(C)(C)C)cc1 | inactive: 10.4%
22 | CCOC(=O)C1=CN(Cc2ccco2)S(=O)(=O)NC1CC (stereo unspecified) | inconclusive: -33.1% [inhibitor]
23 | N=C1C(c2ccccc2)=C(O)CN1c1cccc(S(=O)(=O)N2CCOCC2)c1 | inconclusive: -45.2% [inhibitor]
24 | Cc1ccc([N+](=O)[O-])cc1NC(=O)Cc1ccc(F)cc1 | inactive: -19.5%
25 | CN(C)C=Nc1ccc2nc3c(cc2c1)[nH]c1ccccc13 | active: -89.5%
26 | COc1ccccc1NC(=O)CSCc1nc2ccccc2[nH]1 | inactive: -8.4%

Row | SMILES | activity change
27 | Cc1ccc(CSc2nnc(CCCCCNC(=O)OC(C)(C)C)o2)cc1 | inactive: 5.22%
28 | CC(C(=O)NC1C=CS(=O)(=O)C1)N1C(=O)/C(=C/c2ccc(Cl)cc2)SC1=S (stereo unspecified) | inconclusive: -33.1% [inhibitor]
29 | O=C1/C(=C\c2ccc(Cl)c(Cl)c2)CN(C(=O)CCN2CCOCC2)C/C1=C/c1ccc(Cl)c(Cl)c1 | inconclusive: -56.5% [inhibitor]
30 | Cc1ccc(S(=O)(=O)N2[C@@H](c3ccccc3)C(C(=O)O)=CC[C@H]2c2cccc(Cl)c2)cc1 | inconclusive: -50.9% [inhibitor]
31 | C/C(=N\Nc1ccc(S(N)(=O)=O)cc1[N+](=O)[O-])c1ccc2c(c1)OCO2 | inconclusive: -38.9% [inhibitor]
32 | Cn1c(=O)c2c(n(C)c1=O)=NC1(CCCCC1)N=2 | inconclusive: -32.9% [inhibitor]
33 | COc1ccc(Cc2nc(-c3cccc(C)c3)no2)cc1 | inconclusive: -35.3% [inhibitor]
34 | CCOc1ccc(C2C(C(=O)Nc3ccccc3)=C(C)N=c3s/c(=C/c4cccc(OCC(=O)O)c4)c(=O)n32)cc1 (stereo unspecified) | inconclusive: -42.5% [inhibitor]
35 | CC1=Nc2ccccc2/C1=C\c1nc(-c2ccc(F)cc2)oc1O | inactive: -13.8%
36 | COC(=O)CCC(=O)OC1(C)C(=O)C2=CN(Cc3ccccc3)C(c3ccc(OC)cc3)=CC2=C(Br)C1=O (stereo unspecified) | inactive: 11.8%
37 | CCOC(=O)c1cc2c(C)n(-c3ccc(C)cc3)c(C)c2ccc1=O | inconclusive: -32.2% [inhibitor]
38 | CC(=O)c1c(COC(=O)c2ccc(F)cc2)nc2ccccc2[n+]1[O-] | inconclusive: -55.7% [inhibitor]
39 | CCOC(=O)c1c(CN2CCN(CC#N)CC2)n(C)c2cc(Br)c(OC)cc12 | inactive: -12.6%
40 | O=C1CCC[C@@H]2Cc3nc4ccccc4cc3[C@@H]3CCN1[C@H]23 | inactive: -23%
41 | CCCn1c(CN(Cc2ccccc2)Cc2ccccc2)nc2c1c(=O)n(C)c(=O)n2C | inconclusive: -37.2% [inhibitor]
42 | Cc1ccccc1NC(=O)NCCc1ccc(Cl)cc1 | inactive: 8.32%
43 | CNC(=O)c1ccc(-c2ccc(Cl)c(Cl)c2)s1 | inconclusive: -39.1% [inhibitor]
44 | Cc1cc(O)c(CN2CCN(S(=O)(=O)c3cccs3)CC2)cc1C(C)C | inactive: 3.22%
45 | O=S(=O)(c1ccc2c(c1)OCCO2)N1CCN(c2nc(-c3cccs3)nc3ccccc23)CC1 | inconclusive: -34.5% [inhibitor]
46 | COc1ccc(NC(=O)CCCn2nc(C)c3c(C)n(-c4ccccc4)nc3c2=O)cc1OC | inconclusive: -51.4% [inhibitor]
47 | CC(OC(=O)c1ccc(O)cc1)C(=O)Nc1nc(-c2ccccc2)cs1 (stereo unspecified) | inactive: 27.7%
48 | Cc1c(NC(=O)C(C)OC(=O)c2cccnc2)c(=O)n(-c2ccccc2)n1C (stereo unspecified) | inconclusive: -30.1% [inhibitor]
49 | Cc1nn(-c2ccccc2)c2c1C1(C(=O)N(C(C)C)c3ccccc31)C(C#N)=C(N)O2 (stereo unspecified) | inactive: -4.52%
50 | Cc1cc(F)ccc1S(=O)(=O)N(C(=O)c1ccncc1)c1ccc(OC(=O)c2ccncc2)cc1 | inactive: 2.03%
51 | O=C(CSc1nnc(C2COc3ccccc3O2)o1)Nc1nccs1 (stereo unspecified) | inactive: -14.2%
52 | O=P(CCNCc1ccco1)(c1ccccc1)c1ccccc1 | inactive: 14.2%

Row | SMILES | activity change
53 | O=C(N/N=C/c1ccc([N+](=O)[O-])o1)C1CC1 | active: -85.4%
54 | O=C(CNC(=O)c1ccc(Cl)c([N+](=O)[O-])c1)NCC1CCCO1 (stereo unspecified) | inconclusive: -38.9% [inhibitor]
55 | COc1ccc(S(=O)(=O)N2CCOCC2)cc1NC(=O)c1ccccc1C | inactive: -25.6%
56 | Cc1nnc(NC(=O)CSc2n[nH]c(-c3ccccc3C)n2)s1 | inconclusive: -39.7% [inhibitor]
57 | CN(C)S(=O)(=O)c1ccc(NC(=O)CSc2nnc(-c3ccco3)o2)cc1 | inconclusive: -33% [inhibitor]
58 | OCC1(Cc2ccccc2)CCCN(Cc2ccn[nH]2)C1 (stereo unspecified) | inconclusive: -40.5% [inhibitor]
59 | NS(=O)(=O)c1ccc(CCNC(=O)C2CCCN(S(=O)(=O)c3cccnc3)C2)cc1 (stereo unspecified) | inactive: 5.29%
60 | O=C(O)c1cccc(CN2C(=O)S/C(=C/c3ccccc3[N+](=O)[O-])C2=O)c1 | inconclusive: -48.4% [inhibitor]
61 | O=C(c1ccc(Cl)c([N+](=O)[O-])c1)N1CCN(c2ccccn2)CC1 | inconclusive: -34.8% [inhibitor]
62 | CCOC(=O)CC1C(=O)NCCN1S(=O)(=O)c1ccc(C)cc1 (stereo unspecified) | inconclusive: -33.1% [inhibitor]
63 | Cc1cnc([N+](=O)[O-])n1CCOC(=O)NC(=O)c1ccccc1 | inconclusive: -68.6% [inhibitor]
64 | Cc1ccc(C(C)NC(=O)C2CCCC2)cc1C (stereo unspecified) | inconclusive: -34.2% [inhibitor]
65 | CNc1c(C(=O)O)ccc2c1C(=O)c1ccccc1C2=O | inactive: -12.8%
66 | CC1CCN(c2ccc(-c3cccs3)nn2)CC1 | active: -93.7%
67 | O=C(CCN1C(=O)/C(=C\c2ccccc2Cl)SC1=S)N1CCN(c2ccccc2)CC1 | inactive: -8.07%
68 | Cc1ccc(C(=O)Nc2ccc3nccnc3c2)cc1 | inconclusive: -51.7% [inhibitor]
69 | COCCCNc1oc(-c2ccccc2Cl)nc1C#N | inconclusive: -36.7% [inhibitor]
70 | COc1cccc(NC(=O)c2cc3ccccc3o/c2=N\O)c1 | inconclusive: -35.7% [inhibitor]
71 | CCOc1cc(S(=O)(=O)NC2CC2)c(OCC)cc1-n1cnnn1 | inactive: 0.756%
72 | CC1(C)CC(NC(=O)c2cc(S(=O)(=O)N3CCOCC3)ccc2Cl)CC(C)(C)N1 | inconclusive: -33.8% [inhibitor]
73 | O=C(NC1CCOCC1)C1CCC(=O)N(Cc2cccc(C(F)(F)F)c2)C1 (stereo unspecified) | inconclusive: -31.3% [inhibitor]
74 | CCCCOc1ccc(CSC(=N)N)cc1Cl | inactive: -4.12%
75 | O=C(CNC(=O)c1cccs1)N=Nc1c(O)[nH]c2ccc([N+](=O)[O-])cc12 | inconclusive: -35.3% [inhibitor]
76 | COc1ccc(C(=O)NCc2ccc(C(=O)NCC(OC)OC)cc2)cc1OC | inactive: -4.39%
